From PMC4336329 (PLoS ONE, 2015)
The campaign covered roughly 310,000 compounds. About 14,000 (4.5%) showed an effect of 50% or more. Effects have a minus sign here. This is one part of the list.

biological target: human ether-à-go-go-related gene (hERG) potassium channel (human, UniProt Q12809); assay: primary screen, population patch clamp on CHO cells stably expressing hERG
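Note: peak tail current of the secondary pulse compared with the same well before compound.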

Chain of human ether-à-go-go-related gene (hERG) potassium channel (Q12809 whole entry, looked up): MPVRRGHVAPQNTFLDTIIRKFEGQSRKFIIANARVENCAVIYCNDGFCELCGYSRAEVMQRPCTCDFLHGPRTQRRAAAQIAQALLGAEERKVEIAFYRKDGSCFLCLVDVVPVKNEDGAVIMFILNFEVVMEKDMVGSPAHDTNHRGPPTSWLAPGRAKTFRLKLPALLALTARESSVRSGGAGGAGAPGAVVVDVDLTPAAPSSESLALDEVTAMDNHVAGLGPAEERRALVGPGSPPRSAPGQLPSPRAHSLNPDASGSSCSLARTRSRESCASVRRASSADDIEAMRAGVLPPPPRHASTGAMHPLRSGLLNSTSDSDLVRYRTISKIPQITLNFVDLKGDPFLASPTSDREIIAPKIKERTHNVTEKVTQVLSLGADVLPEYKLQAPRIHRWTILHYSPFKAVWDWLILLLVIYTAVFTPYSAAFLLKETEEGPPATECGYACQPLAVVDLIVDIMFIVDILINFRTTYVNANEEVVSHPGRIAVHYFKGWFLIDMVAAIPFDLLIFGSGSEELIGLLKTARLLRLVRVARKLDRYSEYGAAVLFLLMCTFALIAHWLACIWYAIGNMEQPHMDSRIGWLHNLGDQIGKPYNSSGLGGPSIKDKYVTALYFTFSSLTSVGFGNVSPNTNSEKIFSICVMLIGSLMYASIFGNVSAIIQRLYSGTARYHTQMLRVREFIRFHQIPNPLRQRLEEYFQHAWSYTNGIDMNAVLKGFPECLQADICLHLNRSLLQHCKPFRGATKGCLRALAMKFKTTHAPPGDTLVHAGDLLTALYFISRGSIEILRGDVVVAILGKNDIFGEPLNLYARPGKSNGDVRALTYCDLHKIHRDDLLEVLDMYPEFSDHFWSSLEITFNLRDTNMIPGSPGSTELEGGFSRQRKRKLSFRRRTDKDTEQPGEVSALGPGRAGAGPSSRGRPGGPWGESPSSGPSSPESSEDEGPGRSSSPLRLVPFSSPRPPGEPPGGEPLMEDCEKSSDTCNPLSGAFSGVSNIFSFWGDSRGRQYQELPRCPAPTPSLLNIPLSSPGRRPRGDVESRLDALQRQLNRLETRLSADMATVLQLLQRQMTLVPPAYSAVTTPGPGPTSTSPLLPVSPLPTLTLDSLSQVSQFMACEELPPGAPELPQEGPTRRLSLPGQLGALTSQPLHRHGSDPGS

Row | SMILES | hERG current change (%, negative = inhibition) at 10uM [%]
1 | CCC1(C(=O)c2ccc(C)cc2)C2c3ccccc3OC(=O)C21C(=O)O (centres unmarked) | 39.9
2 | CCn1ncc(C(=O)Nc2ccc([N+](=O)[O-])cc2OC)c1C | 2.34
3 | O=C1CC(Sc2ncccn2)C(=O)N1c1ccccc1C(F)(F)F (centres unmarked) | 10.1
4 | CCOCCCNC(=O)CNC(=S)N(Cc1ccc(C)cc1)Cc1ccco1 | -23
5 | O=C(NNc1ccccc1F)C1CCC1 | 14.5
6 | Cc1nc(=O)c(-c2ccccc2)c(C)n1-c1ccc(S(N)(=O)=O)cc1 | -15.8
7 | CN(C)CCCN(Cc1ccccc1)C(=S)Nc1ccc(SC(F)F)cc1 | -75.1
8 | COc1ccc(N2CCN(C(=O)C3Cc4ccccc4CN3C(=O)c3ccccc3)CC2)cc1 (centres unmarked) | -21.4
9 | CCOC(=O)N1CCN(C(=O)c2ccc(OC)c(OC)c2)CC1 | 18.5
10 | O=C(c1cnccn1)N(c1ccccc1)C1(C(=O)NC2CCCCC2)CCCCC1 | 3.06
11 | COc1ccc(N2CCN(C(=O)CSc3nnc(NC(=O)C4CC4)s3)CC2)cc1 | 4.25
12 | CCCCCCC(=O)N1CCCC(c2nc(-c3cccc(OC)c3)no2)C1 (centres unmarked) | -41.3
13 | CC(Cn1cncn1)C(=O)N1CCN(S(=O)(=O)c2ccc(Cl)cc2)CC1 (centres unmarked) | 12.9
14 | O=C(NC1CCCCC1)C(c1ccncc1)N(C(=O)c1csnn1)c1ccccc1F (centres unmarked) | -9.12
15 | COc1ccc(NS(=O)(=O)c2cn(C)cn2)cc1 | 11.9
16 | CSCC[C@H](NC(=O)N1CCn2c1nc1ccccc12)C(=O)NCc1ccco1 | -19.1
17 | CCN1CCN(c2ccc(N)cc2)CC1 | 46.4
18 | COc1ccc2c(c1)c(C(=O)N/N=C/c1cccc(Br)c1)c(C)n2C | -15.9
19 | CCC(CC)NC(=O)COc1ccc(OC)cc1C=O | 22.8
20 | CCc1ccc(NC(=O)Nn2cnnc2)cc1 | 23.7
21 | CC(=O)c1ccc(NC(=O)CCCN2C(=O)C(c3ccccc3)Oc3cccnc32)cc1 (centres unmarked) | -30.7
22 | Cn1c(=O)[nH]c(=O)c2c1nc(Br)n2CCCO | 6.39
23 | O=C(/C=C/c1ccc(F)cc1)N1CCN(c2ncccn2)CC1 | 12.1

Row | SMILES | hERG current change (%, negative = inhibition) at 10uM [%]
24 | CN1CCN(C(=S)c2cn(CCOc3ccccc3)c3ccccc23)CC1 | -11.6
25 | CCN(CC)S(=O)(=O)c1cccc(NC(=O)COC(=O)c2n[nH]c(=O)c3ccccc23)c1 | -2.07
26 | COC(=O)C1=NNC(C(=O)c2ccco2)C1c1ccccc1 (centres unmarked) | 1.6
27 | COc1ccc(CC(=O)N(C)CC(=O)Nc2ccccc2SC)cc1 | 8.56
28 | O=C1CN=C(c2cccc(Br)c2)c2cc(Br)ccc2N1 | -44.5
29 | Cc1ccccc1NC(=O)C1c2ccccc2Oc2ccccc21 | 29
30 | Cc1cc(NC(=O)/C(C#N)=C/c2ccco2)n(-c2ccccc2)n1 | -3.27
31 | CCN(c1ccc(NC(=O)CN2C(=O)NC3(CCOc4ccccc43)C2=O)cc1)C(C)C (centres unmarked) | -6.12
32 | C=CCN(CC=C)C(=O)Cn1cnc([N+](=O)[O-])n1 | -0.773
33 | CN(c1ncnc(N)c1[N+](=O)[O-])C1CCCCC1 | -3.82
34 | O=C(NC(Cc1ccccc1)C(=O)O)c1ccccc1 (centres unmarked) | 8.76
35 | Cc1ccnc(SC2CC(=O)N(c3ccc([N+](=O)[O-])cc3)C2=O)n1 (centres unmarked) | -26.8
36 | Cc1ccn2c(=O)nc(SCC(=O)Nc3ccc4c(c3)OCO4)nc2c1 | 0.0348
37 | CCOc1ccc(CN(C)C(=O)c2ccc3ccccc3n2)cc1 | -18.2
38 | COCc1cc(N2CCOCC2)nc(SCc2ccc(Cl)cc2)n1 | -11.7
39 | Cn1c(SCC(=O)Nc2ccc3c(c2)OCCO3)nnc1C(F)(F)F | 7.6
40 | CCCC(=Nc1ccccc1)C1=C(O)C(C(=O)OC)C(C)(C)CC1=O (centres unmarked) | -3.62
41 | CC1(C)C2CCC1(CS(=O)(=O)N1CCN(c3ccc(F)cc3)CC1)C(=O)C2 (centres unmarked) | 8.44
42 | Nc1cccc(C(=O)Nc2ccc3nc(-c4cccnc4)[nH]c3c2)c1 | -4.09
43 | CCCOc1ccc(C2/C(=C(\O)c3c(C)[nH]c(C(=O)OC)c3C)C(=O)C(=O)N2CCN(C)C)cc1 (centres unmarked) | 16.6
44 | COc1ccc(-n2nc3c(c2NC(=O)Cc2cccc(C)c2)CS(=O)C3)cc1 (centres unmarked) | -15.5
45 | Cc1cc(C)cc(NC(=O)COC(=O)CCc2ccc(S(=O)(=O)N3CCOCC3)cc2)c1 | -3.69
46 | CSc1ccccc1C(=O)Nc1c(C)cccc1C | 5.35

Row | SMILES | hERG current change (%, negative = inhibition) at 10uM [%]
47 | O=C(O)c1cccc(NC(=O)C2CC(=O)N(Cc3ccccc3)C2)c1 (centres unmarked) | 23.5
48 | Cc1cccc(NC(=O)C2Cc3ccccc3O/C2=N\O)c1 (centres unmarked) | -1.41
49 | Cc1ccc(C2(c3noc(CN(C)Cc4ccccn4)n3)CCCC2)cc1 | 7.29
50 | O=C(CSc1nnnn1C1CCCCC1)Nc1cccc(NC(=O)c2ccco2)c1 | -27.8
51 | CC1C(=O)N2CCCc3cc(NC(=O)C(=O)NCc4ccccn4)cc1c32 (centres unmarked) | 2.99
52 | Cn1c(SC2=CS(=O)(=O)c3ccccc32)nc2ccccc21 | 4.24
53 | Cc1cccc(NC(=O)CCCN2C(=S)NC(C)(C)CC2C)c1C (centres unmarked) | 9.52
54 | O=C(NCc1ccco1)C(Cc1ccccc1)N1C(=O)c2ccccc2C1=O (centres unmarked) | -2.88
55 | COC(=O)C1=C(C)NC(=O)/C1=C\c1cc(C)n(-c2ccc(F)cc2)c1C | 3.52
56 | CC(O)(CS(=O)(=O)Cc1ccccc1)C(=O)Nc1cccc(C(F)(F)F)c1 (centres unmarked) | 1.72
57 | CN(C(=O)COc1ccc(C(C)(C)C)cc1)C1CCS(=O)(=O)C1 (centres unmarked) | -17.1
58 | COc1ccccc1C(=O)NCc1ccc2c(c1)OCO2 | -3.43
59 | CC(C)C(NC(=O)CC12CC3CC(CC(C3)C1)C2)C(=O)O (centres unmarked) | 10.6
60 | O=C(CC1Sc2ccccc2NC1=O)NCc1cccc(Cl)c1 (centres unmarked) | 16.9
61 | COc1cc2c(cc1OC)CN(S(=O)(=O)c1ccccc1F)CC2 | 1.69
62 | O=C(c1ccc([N+](=O)[O-])cc1)N1CCN(C2=NS(=O)(=O)c3ccccc32)CC1 | -46.2
63 | Cc1cc(C(=O)NCC(C)C)c2ccccc2n1 | 8.14
64 | CS(=O)(=O)c1ccc(NS(=O)(=O)c2ccc3ccccc3c2)cc1 | 14.2
65 | CC1CCN(S(=O)(=O)c2ccc3c(c2)CCN3C(=O)CCC(=O)O)CC1 | 8.01
66 | Clc1ccc(C2CC(c3cccs3)n3ncnc3N2)c(Cl)c1 (centres unmarked) | 4.91
67 | COc1ccc(OC)c(-c2csc(NC(=O)Cc3ccccc3F)n2)c1 | -2.42
68 | NS(=O)(=O)c1cccc(NC(=S)NCc2ccccc2)c1 | 19.7
69 | CCCSc1nc2c(c(=O)n1-c1ccc(OCC)cc1)SCC2 | 11

Row | SMILES | hERG current change (%, negative = inhibition) at 10uM [%]
70 | CCOc1ccc(/C=C2\CCC(C3CCCC3)C2=O)cc1OC (centres unmarked) | 16.2
71 | Cc1ccccc1-n1nc(C)c2cc(C(=O)NC3CC3)sc21 | -5.95
72 | O=C(CN1CCOCC1)N/N=C/c1ccc(C(=O)O)cc1 | 7.17
73 | CCOC(=O)N1CCC(NC(=O)c2cc(S(=O)(=O)N3CCCCC3)ccc2F)CC1 | 13.1
74 | CC(=O)Nc1ccc(S(=O)(=O)NC2=C(N3CCN(Cc4ccccc4)CC3)C(=O)c3ccccc3C2=O)cc1 | -6.37
75 | Cc1ccc(S(=O)(=O)Cc2ccc(C(=O)N3CCC(C(N)=O)CC3)o2)cc1 | 30.7
76 | Fc1ccc(CNCCc2ccccc2F)cc1 | -2.59
77 | Cc1ccc(N2C(=S)NC3c4cc(Cl)ccc4OC2(C)C3C(=O)N(C)C)cc1 (centres unmarked) | 18.3
78 | CN(C)c1nc(N)nc(-c2cccnc2)n1 | -15.3
79 | O=C(COC(=O)c1c[nH]c(=O)[nH]c1=O)Nc1ccccc1Br | 5.69
80 | O=C(Nc1ccccc1N1CCOCC1)C1CCN(S(=O)(=O)c2ccc(F)cc2)CC1 | 6.56
81 | Cc1ccccc1NC(=O)c1cc(S(=O)(=O)N2CCOCC2)cs1 | 9.42
82 | N=c1c(S(=O)(=O)c2ccc(Cl)cc2)cc2c(=O)n3ccccc3nc2n1CCN1CCOCC1 | -46.4
83 | O=C(O)c1occc1CSc1ccccc1 | 29
84 | O=C(Nc1cccnc1Cl)c1cc(-c2cccc(O)c2)on1 | -8.42
85 | COC(=O)C1CCN(C(=O)c2cc(OC)c(OC)c(OC)c2)CC1 | 19.3
86 | COc1ccc(S(=O)(=O)N2CCOCC2)cc1NC(=O)COc1ncnc2ccccc12 | 6.62
87 | O=C(Cc1ncc(C(F)(F)F)cc1Cl)N1CCN(c2cccc(Cl)c2)CC1 | -60.6
88 | O=C(Nc1cccc(C(F)(F)F)c1)c1cc[n+]([O-])cc1 | 21.2
89 | O=C(c1cc(-c2ccc(O)cc2)on1)N1CCCCCC1 | -19.3
